Hit rate of the full screen: of about 150,000 compounds, about 180 (0.12%) were called active. Inconclusive results, whose numbers are uncertain, are shown with a selection of clear calls. The call rests on the fitted dose curve; in most records, active means well fitted cell-killing curve with a large enough effect; inconclusive means small, poorly fitted or top-dose-only effect, or effect the other way; inactive means flat fitted curve, though single readings scatter. Potencies beside an inconclusive call are fits to weak or partial responses and may not hold up.
Assay: GF-AFC viability counterscreen for inhibitors of alpha-synuclein gene (SNCA) expression; further: nearly all actives have a fitted effect of over 30% in size;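 on activity change, negative = cytotoxicity: 0% = DMSO-treated cells and -100% = medium-only wells without cells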
Conditions: HEK-293-SNCA-luc viability, GF-AFC fluorescence, 24 h; activity change, negative = cytotoxicity: at 57.1 µM (top of the series) unless noted
In short: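 Cytotoxicity counterscreen: after 24 h compound treatment of genome-edited SNCA-luciferase HEK-293 cells, live-cell protease substrate GF-AFC read by fluorescence after 30 min; activity scaled between DMSO (0%) and medium-only (-100%), curves Hill-fitted.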
For `COC(=O)[C@@H]1Cc2ncn(Cc3ccc(Cl)cc3)c2CN1Cc1cccs1`, the Potency was “inactive”.
With `COc1cccc(N2C(=O)N(Cc3ccc(C#N)cc3)c3ccccc3S2(=O)=O)c1` the Potency was inconclusive: 11.2 µM [cytotoxic, partial curve, poor fit].
In the case of `CCC(=O)NCCC1CCN(C(=O)Nc2ccc(C)c(F)c2)CC1`, the Potency was “inactive”.
With `CN(Cc1ccccc1)C(=O)CSc1nc2ccsc2c(=O)n1-c1ccc(F)cc1` the Potency was inconclusive: 28.2 µM [cytotoxic, single point].
In the case of `CCOc1ccc(CCNCc2c(C(=O)O)n(Cc3ccc(C)cc3)c3cc(OC)ccc23)cc1`, the Potency was inconclusive: 25.1 µM [cytotoxic, single point].
In the case of `O=C(CCc1nnn2c1CN(C(=O)c1ccccc1F)CC2)N1CCOCC1`, the Potency was inconclusive: 7.08 µM [cytotoxic, single point].
With `COc1cccc(CNc2nc3c(-c4ccccc4)nnn3c3ccccc23)c1` the Potency was inconclusive: 7.94 µM [rising, partial curve, poor fit].
In the case of `COc1ccc(CCNC(=O)Cn2c(=O)n(-c3cc(OC)c(OC)c(OC)c3)c(=O)c3ccccc32)cc1OC`, the Potency was inconclusive: 0.224 µM [cytotoxic, full curve, poor fit].
For `O=C(c1c[nH]c2ccccc12)N1CCC2(CC1)COc1ccccc1[S+](=O)([O-])N2`, the Potency was “inactive”.
With `COCc1ccc2c(c1)c(OC(C)(C)C(=O)NCc1ccncc1)nn2Cc1cccc(OC)c1` the Potency was “inactive”.
In the case of `COc1cccc(-c2nc(CS(=O)(=O)CC(=O)NCCc3ccc(OC)c(OC)c3)c(C)o2)c1`, the Potency was inconclusive: 28.2 µM [cytotoxic, single point].
For `O=C(Nc1ccc(F)cc1)C1CCCN(c2ncnc3c2nc2n3CCCCC2)C1` (stereo unspecified), the Potency was inconclusive: 39.8 µM [cytotoxic, single point].
For `COc1ccc(C(=O)N[C@@H]2CN(Cc3cccnc3)C[C@H]2CN(C)C)c(OC)c1`, the Potency was “inactive”.
With `CCOc1ccc(-c2cn3c(n2)sc2cc(C(=O)NCCCN(CC)CC)ccc23)cc1` the Potency was inconclusive: 31.6 µM [cytotoxic, single point].
In the case of `O=C1CC(c2noc(-c3ccoc3)n2)CN1C1CCCCC1` (stereo unspecified), the Potency was “inactive”.
For `Cc1ccc2c(c1)C(=O)C(=O)N2Cc1ccc(OC(C)C)cc1`, the Potency was inconclusive: 5.01 µM [cytotoxic, partial curve].
In the case of `CSc1ccc(C(=O)c2[nH]c(=O)[nH]c2C)cc1`, the Potency was inconclusive: 0.708 µM [cytotoxic, full curve, poor fit].
With `CCOc1ccc(CNC(=O)c2[nH]c3ccccc3c2Sc2ccc(C)cc2)cc1` the Potency was “inactive”.
In the case of `O=C(NCc1ccc(F)cc1)c1cc(-c2ccsc2)c2nncn2n1`, the Potency was “inactive”.
In the case of `COc1ccc2nc(C[C@@H]3C[C@@H](C(C)C)[C@H](CN4C(=O)C(C)=C(C)C4=O)C=C3C)[nH]c2c1`, the Potency was inconclusive: 20 µM [cytotoxic, partial curve, poor fit].
For `O=C(CSc1nc2c([nH]c3ccccc32)c(=O)n1-c1ccccc1F)Nc1ccccc1C(F)(F)F`, the Potency was inconclusive: 22.4 µM [cytotoxic, single point].
For `CN(C)c1ncc2nc(-c3ccccc3)c(=O)n(Cc3cccs3)c2n1`, the Potency was inconclusive: 10 µM [rising, partial curve].
For `CC1=C[C@@H](CNC(=O)c2cnccn2)[C@H](C(C)C)C[C@H]1Cc1nc2ccccc2n1C`, the Potency was inconclusive: 28.2 µM [cytotoxic, partial curve, poor fit].
In the case of `CNC(=O)[C@@H]1C[C@H](Oc2ccccc2)CN1C(=O)CCC1CCCC1`, the Potency was inconclusive: 8.91 µM [cytotoxic, single point].
In the case of `COc1ccc(-c2[nH]nc3ncc(C(=O)NCCc4ccccc4)nc23)c(C)c1`, the Potency was inconclusive: 25.1 µM [cytotoxic, partial curve, poor fit].
In the case of `COc1cccc(Nc2sc(C(=O)c3ccc(F)cc3)c(N)c2C(=O)NCc2ccc(C)cc2)c1`, the Potency was inconclusive: 12.6 µM [cytotoxic, partial curve, poor fit].
With `Cc1nnc(CN(C)c2ccc(-c3nc(-c4cccc(Cl)c4)no3)cn2)o1` the Potency was “inactive”.
For `O=S(=O)(Nc1cccc(-c2ccc(N3CCCC3)nn2)c1)c1ccc(F)cc1F`, the Potency was “inactive”.
For `Cc1ccccc1-n1c(=O)c2c3c(sc2n2cnnc12)CCCC3`, the Potency was inconclusive: 0.562 µM [cytotoxic, full curve, poor fit].
With `O=C(Nc1cccn2nc(C3CCC3)nc12)c1ccccn1` the Potency was inconclusive: 39.8 µM [cytotoxic, single point].
For `CCC1CCCCN1CCCNC(=O)c1ccc2c(c1)N(Cc1ccc(Cl)cc1)C(=O)c1ccccc1S2(=O)=O` (stereo unspecified), the Potency was inconclusive: 39.8 µM [cytotoxic, single point].
With `O=S(=O)(NCC1CC1)c1ccc(Nc2nccc(N3CCCc4cc(O)ccc43)n2)cc1` the Potency was inconclusive: 26.7 µM [cytotoxic, single point].
With `Cc1ccc(NC(=O)c2sc3nc(-c4ccc(F)cc4)ccc3c2N)cc1F` the Potency was inconclusive: 2.24 µM [rising, full curve, poor fit].
For `COc1ccc(NC(=O)CN2C(=O)COc3ccc(S(=O)(=O)N4CCCCC4)cc32)cc1Cl`, the Potency was inconclusive: 39.8 µM [cytotoxic, single point].
In the case of `Cc1ccc(-c2cc3c(n2-c2ccccc2F)CC(C)(C)CC3=O)cc1`, the Potency was inconclusive: 0.251 µM [rising, full curve, poor fit].
With `COc1ccc(CNC(=O)C[C@@H]2CCNC[C@@H]2Cc2cc(-c3ccc(C(C)(C)C)cc3)on2)cc1OC` the Potency was inconclusive: 39.8 µM [cytotoxic, single point].
In the case of `Cc1cccc(OCC(=O)Nc2ccc(Cl)c(-c3nc4ccccc4[nH]3)c2)c1`, the Potency was inconclusive: 31.6 µM [cytotoxic, partial curve].
In the case of `CCCNC(=O)N1CCC2(CCCN(Cc3cccc(F)c3F)C2=O)C1` (stereo unspecified), the Potency was “inactive”.
In the case of `COc1cc(CCC2=NN=C(NC(=O)c3ccc(N4C[C@@H](C)N[C@@H](C)C4)cc3)C2)cc(OC)c1`, the Potency was inconclusive: 23.8 µM [cytotoxic, partial curve, poor fit].
With `CN1CCc2nc3sc(C(=O)Nc4cccc(C#N)c4)c(N)c3cc2C1` the Potency was “inactive”.
With `CCCOc1ccc(C2c3c(-c4ccccc4O)n[nH]c3C(=O)N2CCCOCC)cc1OCC` (stereo unspecified) the Potency was inconclusive: 39.8 µM [cytotoxic, single point].
For `COC(=O)Cc1c(C)c2ccc3c(c2oc1=O)CN(Cc1ccccc1OC)CO3`, the Potency was inconclusive: 14.1 µM [rising, partial curve, poor fit].
For `CN(Cc1cccnc1)Cc1nc(C2(O)CCN(Cc3ccccc3C(F)(F)F)CC2)cs1`, the Potency was “inactive”.
For `O=C(c1nnn2c1COC(c1ccccc1)C2)N1CCN(C(=O)c2cccc3[nH]ccc23)CC1` (stereo unspecified), the Potency was “inactive”.
In the case of `CCN1c2cc(C(=O)N3CCN(c4ccc(F)cc4)CC3)ccc2C(=O)N2CCCCC21` (stereo unspecified), the activity change, negative = cytotoxicity was inactive: 5.91% [at 12.5 µM].
With `Fc1ccc(CN2CCOC[C@H]2c2ncc(-c3ccc(F)cc3)[nH]2)cc1` the Potency was “inactive”.
In the case of `Cc1onc(-c2ccccc2Cl)c1C(=O)N(C)c1ccc(Cl)cc1`, the Potency was inconclusive: 0.0947 µM [cytotoxic, full curve, poor fit].
In the case of `O=C1NCCC[C@@H]1NC(=O)[C@@H]1CN(C(=O)c2cccc(F)c2)CCN1C(=O)c1cnccn1`, the Potency was “inactive”.
With `CCOC(=O)c1c(-c2ccc(C)cc2)csc1NC(=O)c1cc(=O)c2cc(Cl)ccc2o1` the Potency was inconclusive: 35.5 µM [rising, partial curve, poor fit].
With `CCC1c2nccn2CCCN1C(=O)c1cnc(C)cn1` (stereo unspecified) the Potency was inconclusive: 6.31 µM [cytotoxic, single point].
With `COc1ccc(-c2nc3cnc(N(C)C)nc3n(C3CC3)c2=O)cc1` the Potency was inconclusive: 15.8 µM [rising, partial curve].
For `CS(=O)(=O)c1cccc(CNc2nc(Nc3ccc4c(c3)CCC(=O)N4)ncc2C(F)(F)F)c1`, the Potency was inconclusive: 21.5 µM [cytotoxic, partial curve, poor fit].
For `CCOC1CCOC2(CCN(C(=O)c3ccncc3)CC2)C1` (stereo unspecified), the activity change, negative = cytotoxicity was inactive: 15.7% [at 12.5 µM].
With `CCN1CCN(c2nnc(-n3cccc3C(=O)Nc3cccc(OC)c3)s2)CC1` the Potency was inconclusive: 31.6 µM [cytotoxic, single point].
For `COc1ccc(C(=O)N[C@H]2C[C@@H](c3nc(-c4ccc(OC)cc4)no3)N(C)C2)cc1`, the Potency was inconclusive: 25.1 µM [cytotoxic, partial curve].
In the case of `CCC(Sc1nc2ccccc2c2nc(CCc3c(C)n[nH]c3C)nn12)C(=O)Nc1ccc(OC)cc1` (stereo unspecified), the Potency was inconclusive: 1.78 µM [cytotoxic, full curve].
In the case of `COc1ccc(NC(=O)C2(C)CCCc3cnc(Nc4ccccc4)nc32)cn1` (stereo unspecified), the Potency was inconclusive: 5.01 µM [cytotoxic, full curve].
In the case of `O=C(NCc1cccc(Cl)c1)c1cc(-c2cccs2)c2cccn2n1`, the Potency was inconclusive: 12.6 µM [cytotoxic, partial curve, poor fit].
In the case of `C=C(F)c1sc(CNCCCNc2cc(=O)c3ccccc3[nH]2)c(C)c1Br`, the Potency was inconclusive: 21.2 µM [cytotoxic, partial curve, poor fit].
In the case of `Cc1nn2c(c1-c1ccccc1OCc1ccccc1)N(Cc1ccccc1)CCC2`, the Potency was inconclusive: 31.6 µM [cytotoxic, single point].
In the case of `Cc1cccc(Cn2c(SCc3ccc(C(=O)N4CCC(C)CC4)cc3)nc3ccncc32)c1`, the Potency was inconclusive: 20 µM [cytotoxic, partial curve, poor fit].
Potency means the concentration at half of the fitted maximal effect; tags describe the fitted curve by direction and shape.
